{"source": "PubChem BioAssay AID504832", "about": "(National Center for Advancing Translational Sciences (NCATS), 2011)", "note": "Among all 310,000 compounds or so, about 18,000 (5.8%) were called active. Inconclusive means that the source gave no clear call. Such entries were picked first, then a sample of the others. The call rests on the fitted dose curve; in most records, active means well fitted inhibition curve with a large enough effect; inconclusive means small, poorly fitted or top-dose-only effect, or another doubt; inactive means no such curve, though single readings can be large or run the other way. Potencies of inconclusive entries are left out as doubtful fits. On the % scale 0 is the no-effect control and ±100 the full control effect; potency means the concentration at half of the fitted maximal effect; tags describe the fitted curve by direction and shape.", "data": [{"experiment": "Primary qHTS for delayed death inhibitors of the malarial parasite plastid, 48 hour incubation", "settings": "P. falciparum luciferase growth in erythrocytes; series mostly up to 28.7 µM; activity change, negative = inhibition: at the top concentration", "how_it_was_run": "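Firefly luciferase activity from engineered P. falciparum reports growth; inhibitors lower the luminescent signal. Cultures contained 2% hematocrit erythrocytes at 0.1% final parasitemia.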", "values": [{"molecule": "COc1ccc(NC(=O)/C(=C\\c2ccccc2)NC(=O)c2ccco2)cc1", "activity change, negative = inhibition": "inactive: 0.992%"}, {"molecule": "COc1cccc(NC2c3ccccc3C(=O)N2Cc2ccccc2Cl)c1", "note": "(stereo not given)", "Potency": "inconclusive [inhibitor, single point]"}, {"molecule": "COc1ccccc1C(CNC(=O)CN(C)S(=O)(=O)c1ccc(C)cc1)N1CCCC1", "note": "(stereo not given)", "Potency": "inconclusive [inhibitor, single point]"}, {"molecule": "CC(C)(C)C(=O)Nc1nnc(CCc2ccccc2)s1", "activity change, negative = inhibition": "inactive: 145%"}, {"molecule": "CN(C)c1ccc(C2CC(c3ccccc3)=Nc3nc(-c4ccccc4)cn32)cc1", "note": "(stereo not given)", "Potency": "active: 8.28 µM"}, {"molecule": "COc1ccc(Cl)cc1NS(=O)(=O)c1ccc(S(=O)(=O)N2CCCC2)cc1", "Potency": "inconclusive [inhibitor, single point]"}, {"molecule": "Nc1sc2c(c1C(=O)NCCc1ccccc1)CCC2", "Potency": "active: 13.1 µM"}, {"molecule": "CCOC(=O)/C(=C\\c1ccc([N+](=O)[O-])cc1)C(=O)c1cc(C(C)=O)c(Nc2ccccc2)s1", "Potency": "inconclusive [inhibitor, partial curve]"}, {"molecule": "CCOc1ccccc1N(CC(=O)NC1CCCCC1)C(=O)CCCC(=O)Nc1ccccn1", "Potency": "inconclusive [inhibitor, partial curve]"}, {"molecule": "CCC(C)Oc1nc(C)cc(C)c1S(=O)(=O)c1ccccc1C", "note": "(stereo not given)", "Potency": "inconclusive [inhibitor, single point]"}, {"molecule": "C[C@H]1CN=C(N(C)C)N1CCCC1CCCCC1", "Potency": "inconclusive [inhibitor, single point]"}, {"molecule": "COc1ccc(F)cc1C(=O)C1CCCN(C(=O)c2ccccc2N(C)C)C1", "note": "(stereo not given)", "Potency": "inconclusive [inhibitor, partial curve, poor fit]"}, {"molecule": "COC(=O)c1cc2c(ccn2-c2ccc(F)cc2)n1Cc1ccc(OC(C)=O)cc1", "Potency": "inconclusive [inhibitor, single point]"}, {"molecule": "Cc1noc(C)c1COc1ccc(C(=O)N(C)CCOc2ccccc2)cc1", "Potency": "inconclusive [inhibitor, partial curve, poor fit]"}, {"molecule": "Cc1ccc(NS(=O)(=O)c2ccc(C(=O)N3CCN(c4ccccn4)CC3)cc2)cc1", "Potency": "inconclusive [inhibitor, single point]"}, {"molecule": "Cc1cccc(NC(=O)CSc2ccc(-c3cccnc3)nn2)c1", "Potency": "inconclusive [inhibitor, partial curve, poor fit]"}, {"molecule": "Cc1cccn2c(=O)c3cc(C#N)c(=NC(=O)c4cccs4)n(CC(C)C)c3nc12", "activity change, negative = inhibition": "inactive: 57.9%"}, {"molecule": "O=C(CSc1nnc2scc(-c3ccc(F)cc3)n12)NCc1ccco1", "activity change, negative = inhibition": "inactive: -10.2%"}, {"molecule": "CCCCCCCCCCCCCCCC[n+]1ccc(C(N)=O)cc1", "Potency": "inconclusive [inhibitor, single point]"}, {"molecule": "COc1ccc(C(=O)OCCN2C(=O)c3ccccc3C2=O)cc1", "Potency": "inconclusive [inhibitor, partial curve, poor fit]"}, {"molecule": "N#Cc1cc(C#N)c(N2CCN(c3cccc(Cl)n3)CC2)nc1N", "Potency": "active: 3.7 µM"}, {"molecule": "Cc1ccc(C(C(=O)NC(C)(C)C)N(Cc2ccccc2)C(=O)c2snc(C(N)=O)c2N)o1", "note": "(stereo not given)", "Potency": "inconclusive [inhibitor, single point]"}, {"molecule": "CC(NC(=O)C(C)N1CCN(S(=O)(=O)c2ccccc2)CC1)c1ccccc1", "note": "(stereo not given)", "activity change, negative = inhibition": "inactive: -32.2%"}, {"molecule": "O=S(=O)(c1ccccc1)N1CCN=C1SCc1cccc(Cl)c1", "Potency": "inconclusive [inhibitor, single point]"}, {"molecule": "COCCNC(=O)C(c1ccc(C)cc1)N(C(=O)CCC(=O)Nc1ccccn1)c1ccccc1C", "note": "(stereo not given)", "activity change, negative = inhibition": "inactive: -33.5%"}, {"molecule": "CCOC(=O)C1=C(C)NC(C)=C(C(=O)OCC)C1/C=C/c1ccccc1OC", "Potency": "active: 9.28 µM"}, {"molecule": "CS(=O)(=O)N(Cc1ccccc1)c1ccc(C(=O)N2CCN(c3cccc(Cl)c3)CC2)cc1", "Potency": "inconclusive [inhibitor, single point]"}, {"molecule": "O=c1c(C=NCCCO)c(-c2ccccc2)[nH]n1-c1nc2ccccc2s1", "activity change, negative = inhibition": "inactive: 5.88%"}, {"molecule": "CCOc1ccc(-c2n[nH]c(C)c2Oc2ccccc2OC)c(O)c1", "Potency": "active: 4.15 µM"}, {"molecule": "CCCN(CCC)CCNC(=O)c1cc2c(-c3ccc(Cl)cc3)nn(C)c2s1", "Potency": "active: 0.465 µM"}, {"molecule": "CCOc1ccccc1N1CC(C(=O)N(Cc2nnc(-c3ccccc3Cl)o2)C2CC2)CC1=O", "note": "(stereo not given)", "Potency": "inconclusive [inhibitor, partial curve]"}, {"molecule": "CCOc1ccc2nc(NC(=O)CSc3nc4c(c(=O)n(C)c(=O)n4C)n3C(C)C)sc2c1", "activity change, negative = inhibition": "inactive: 0%"}, {"molecule": "CN(CCc1ccccc1)C1CCCN(S(=O)(=O)c2cccc(F)c2)C1", "note": "(stereo not given)", "Potency": "inconclusive [inhibitor, partial curve, poor fit]"}, {"molecule": "CC1(C)Cc2c(C#N)c(N3CCN(C(=O)c4ccccc4Cl)CC3)nc(-c3ccco3)c2CS1", "Potency": "inconclusive [inhibitor, partial curve, poor fit]"}, {"molecule": "CC(=O)c1ccccc1NC(=O)CN1C(=O)CS/C1=C\\c1nc(-c2ccc(C)cc2)cs1", "activity change, negative = inhibition": "inactive: -16.4%"}, {"molecule": "Cc1cc(OC(C)C(=O)NCCCn2ccnc2)c2c(C)cc(=O)oc2c1", "note": "(stereo not given)", "Potency": "inconclusive [inhibitor, single point]"}, {"molecule": "COc1cccc(C(=O)NCC(=O)N/N=C/c2cccnc2)c1", "activity change, negative = inhibition": "inactive: 18.1%"}, {"molecule": "CCCOc1ccc(C2Nc3cccc4cccc(c34)N2)cc1", "Potency": "inconclusive [inhibitor, single point]"}, {"molecule": "Cc1nc2cc(C(F)(F)F)ccc2n1C1CCN(CC(=O)NC(C)(C)C)CC1", "Potency": "active: 9.28 µM"}, {"molecule": "CCOC(=O)c1cc(NC(=O)Nc2ccc(OC)c(OC)c2)c(C)nc1C", "Potency": "inconclusive [inhibitor, partial curve, poor fit]"}, {"molecule": "C=C1[C@@H]2CC[C@H](C2)C1(C)C", "activity change, negative = inhibition": "inactive: 0.863%"}, {"molecule": "Cc1cc(C)cc(-c2nnc(SCC(=O)N3CCN(C(=O)c4ccco4)CC3)o2)c1", "Potency": "inconclusive [inhibitor, partial curve]"}, {"molecule": "O=C(CCCOc1ccc(Cl)cc1Cl)NCc1ccncc1", "activity change, negative = inhibition": "inactive: 3.32%"}, {"molecule": "CCCCn1c(=O)c(C(=O)Nc2ccccc2S(N)(=O)=O)c(O)c2ccccc21", "activity change, negative = inhibition": "inactive: -0.608%"}, {"molecule": "O=c1[nH]c(=O)n(Cc2ccco2)c2c1C(C(F)(F)F)(C(F)(F)F)N=C(CCc1ccccc1)N2", "Potency": "inconclusive [inhibitor, partial curve, poor fit]"}]}]}
